This note sets out measurements from the supplement of paper PMC8728848.

Holding throughout (experiment): glycan array binding signal (z-score within array); higher = stronger binding
Common to all, as to conditions: glycan notation: IUPAC condensed, linker removed

Assay [1] has as its target Gal(b1-4)GlcNAc(b1-6)Gal(b1-4)GlcNAc. The gist of the method:
(§1)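 Glycan array binding is given as a within-array Z-score, which can be read as non-binding when negative. The arrays, 3228 of them, came from the Consortium for Functional Glycomics database and were retained only where the protein sequence was available. Z-scores were averaged across arrays of the same protein sequence at different concentrations or buffers and across linkers.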

Assay [2] concerns the target Gal(b1-4)GlcNAc(b1-6)GalNAc. The gist of the method: as §1
Assay [3] addresses Gal(b1-4)GlcNAc(b1-6)[Gal(b1-3)]GalNAc. The gist of the method: as §1
In assay [4] the target is Gal(b1-4)GlcNAc(b1-6)[Gal(b1-4)GlcNAc(b1-3)]GalNAc. The gist of the method:
as §1

Assay [5] deals with Gal(b1-4)GlcNAc6P. In outline:
as §1

In assay [6] the target is Gal(b1-6)Gal. The gist of the method:
as §1

Assay [7] concerns the target Gal3S(b1-3)GalNAc. The gist of the method:
as §1

In assay [8] the target is Gal3S(b1-3)GlcNAc. In outline:
as §1

The target of assay [9] is Gal3S(b1-3)[Fuc(a1-4)]GlcNAc. In outline:
as §1

Assay [10] has as its target Gal3S(b1-4)Glc. The gist of the method:
as §1

Assay [11] has as its target Gal3S(b1-4)Glc6S. In outline:
as §1

Assay [12] concerns the target Gal3S(b1-4)GlcNAc. In outline: as §1
In assay [13] the target is Gal3S(b1-4)[Fuc(a1-3)]Glc6S. In outline: as §1
For assay [14], the target named is Gal3S(b1-4)[Fuc(a1-3)]GlcNAc. In outline:
as §1

Assay [15] concerns the target Gal3S(b1-4)[Fuc(a1-3)]GlcNAc6S. The gist of the method:
as §1

Assay [16] concerns the target Gal3S4S(b1-4)GlcNAc. The gist of the method: as §1
For assay [17], the target named is Gal3S6S(b1-4)GlcNAc. The gist of the method: as §1
Assay [18] concerns the target Gal3S6S(b1-4)GlcNAc6S. In outline: as §1
The target in assay [19] is Gal4S(b1-4)GlcNAc. In outline: as §1
The target in assay [20] is Gal4S6S(b1-4)GlcNAc. The gist of the method: as §1
Assay [21] deals with Gal6P(b1-4)GlcNAc. The gist of the method: as §1
Assay [22] deals with Gal6S(b1-3)GlcNAc. The gist of the method: as §1
Assay [23] has as its target Gal6S(b1-3)GlcNAc6S. In outline: as §1

This is one part of the list.

B1: VLRB.aGPA.23-GCN4-biotin (Petromyzon marinus) (protein)
chain: ACPSQCSCSGTEVNCAGKSLASVPAGIPTTTRVLYLNSNQITKLEPGVFDRLANLRELHLWGNQLVSLPPGVFDNLANLEKLWLNSNQLTSLPAGLFDRLVNLEHLGLCCMKLTELPSGAFDKLTRLKQLGLDQNQLKSIPDGAFARLPSLTHVWLHTNPWDCQCTDILYLSGWVAQHSSIVGEGWPWRHSPDSAKCSGTNTPVRAVTEASTSPSKCP
On to B1, for which the “glycan array binding signal (z-score)” value in assay [1] was -0.081; in assay [2], -0.067; in assay [3] it was -0.079; in assay [4], -0.074; in assay [5], -0.081; in assay [6], -0.073. Also, the “glycan array binding signal (z-score)” value is -0.075 in [7]; -0.063 in [8]; -0.082 in assay [9]; -0.073 in assay [10]; -0.079 in [11]; -0.076 in assay [12]. For the same molecule, the “glycan array binding signal (z-score)” value in assay [13] is -0.066; in assay [14], -0.073; in [15] it was -0.074; in assay [16], -0.079; in [17], -0.078; in assay [18] it was -0.07. For the same molecule, the “glycan array binding signal (z-score)” value is -0.08 in assay [19]; -0.079 in assay [20]; -0.084 in assay [21]; 0.341 in [22]; -0.086 in [23].
